{"source": "PubChem BioAssay AID2528", "about": "(National Center for Advancing Translational Sciences (NCATS), 2010)", "note": "The whole screen tested about 350,000 compounds, of which about 700 (0.2%) were called active. This list was built around the results that the source calls inconclusive (neither active nor inactive); the mix of calls is not that of the screen. Calls follow the shape of the dose curve; as a rule, active = well fitted inhibition curve with a large enough effect; inconclusive = small, poorly fitted or top-dose-only effect; inactive = flat fitted curve, though single readings scatter. Potencies of inconclusive entries are left out as doubtful fits. Potency is read from the fitted curve at half-maximal effect; tags tell the direction and shape of the fitted curve."}
{"biological_target": "RecQ-like DNA helicase BLM (Homo sapiens) (UniProt P54132)", "sequence (P54132 whole entry, looked up)": "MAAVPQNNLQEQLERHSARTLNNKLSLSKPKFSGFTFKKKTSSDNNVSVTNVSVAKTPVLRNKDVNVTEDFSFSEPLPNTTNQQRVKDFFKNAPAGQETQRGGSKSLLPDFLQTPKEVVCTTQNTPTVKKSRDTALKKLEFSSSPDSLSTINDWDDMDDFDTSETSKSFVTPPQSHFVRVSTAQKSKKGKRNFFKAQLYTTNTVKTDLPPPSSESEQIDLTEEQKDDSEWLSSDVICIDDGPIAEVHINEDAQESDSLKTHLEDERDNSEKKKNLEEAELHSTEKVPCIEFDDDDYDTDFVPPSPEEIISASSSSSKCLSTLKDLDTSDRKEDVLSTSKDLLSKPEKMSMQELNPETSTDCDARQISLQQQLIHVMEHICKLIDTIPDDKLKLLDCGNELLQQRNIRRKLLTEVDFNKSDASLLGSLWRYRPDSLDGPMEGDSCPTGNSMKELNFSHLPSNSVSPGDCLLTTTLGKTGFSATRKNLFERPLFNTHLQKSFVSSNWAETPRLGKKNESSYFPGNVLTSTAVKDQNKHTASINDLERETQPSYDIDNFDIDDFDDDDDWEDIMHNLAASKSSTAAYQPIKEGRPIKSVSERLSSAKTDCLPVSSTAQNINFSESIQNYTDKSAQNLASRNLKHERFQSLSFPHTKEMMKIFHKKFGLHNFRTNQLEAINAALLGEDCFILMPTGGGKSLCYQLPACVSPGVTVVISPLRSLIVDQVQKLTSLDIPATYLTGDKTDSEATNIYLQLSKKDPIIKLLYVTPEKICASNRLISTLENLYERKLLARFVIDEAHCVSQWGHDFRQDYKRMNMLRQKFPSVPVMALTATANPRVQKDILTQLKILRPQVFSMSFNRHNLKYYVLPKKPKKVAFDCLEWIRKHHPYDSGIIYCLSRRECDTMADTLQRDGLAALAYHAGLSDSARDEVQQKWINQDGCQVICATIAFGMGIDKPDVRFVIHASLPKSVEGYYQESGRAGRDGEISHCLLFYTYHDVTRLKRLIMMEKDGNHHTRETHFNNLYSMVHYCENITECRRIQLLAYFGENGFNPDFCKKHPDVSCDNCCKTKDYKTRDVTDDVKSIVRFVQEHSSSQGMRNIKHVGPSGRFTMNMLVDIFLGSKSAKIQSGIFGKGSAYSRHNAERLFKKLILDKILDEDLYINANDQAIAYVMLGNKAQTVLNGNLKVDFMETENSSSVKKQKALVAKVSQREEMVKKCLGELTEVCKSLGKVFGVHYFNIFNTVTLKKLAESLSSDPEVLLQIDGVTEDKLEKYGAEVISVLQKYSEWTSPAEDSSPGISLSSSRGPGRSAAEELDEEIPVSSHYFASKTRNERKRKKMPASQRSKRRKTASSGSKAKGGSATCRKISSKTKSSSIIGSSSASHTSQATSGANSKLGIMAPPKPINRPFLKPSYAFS", "test": "qHTS Assay for Inhibitors of Bloom's syndrome helicase (BLM); also: nearly all actives have a fitted effect of over 35% in size;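 as to activity change, negative = inhibition: plate controls were vehicle for no effect and no enzyme for full effect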", "settings": "recombinant BLM DNA unwinding, fluorescence dequenching; series mostly up to 56.1 µM; activity change, negative = inhibition: at the top concentration"}
{"compound": "O=C(CCN1C(=O)/C(=C\\C=C\\c2ccccc2)SC1=S)Nc1ccc(C(=O)O)cc1", "Potency": "inconclusive [inhibitor, single point]"}
{"compound": "CCc1nc2ccc(C(=O)Nc3ccc(NC(C)=O)cc3)cc2nc1CC", "activity change, negative = inhibition": "inactive: -10.5%"}
{"compound": "COc1cc(N(C)C)cc(CN(C)CCc2ccc([N+](=O)[O-])cc2)c1O", "Potency": "active: 14.1 µM"}
{"compound": "COc1ccc(S(=O)(=O)Nc2cc(Sc3ncn[nH]3)c(O)c3ccccc23)cc1", "Potency": "inconclusive [inhibitor, single point]"}
{"compound": "O=C(N/N=C/c1cc2cc3c(cc2nc1Cl)OCCO3)c1ccccc1O", "Potency": "inconclusive [inhibitor, single point]"}
{"compound": "COc1c(O)c(O)cc2c1oc1c3cc(C)ccc3oc(=O)c21", "Potency": "inconclusive [inhibitor, single point]"}
{"compound": "O=C(Nc1ccc(F)cc1F)c1ccc2c(c1)CCN2S(=O)(=O)c1ccc(Cl)cc1", "activity change, negative = inhibition": "inactive: -6.2%"}
{"compound": "O=C1C=C(NCCO)C(=O)c2cnccc21", "Potency": "inconclusive [inhibitor, single point]"}
{"compound": "O=c1c2ccccc2c(C=Nc2ccccc2O)c(O)n1-c1nccs1", "activity change, negative = inhibition": "inactive: -5.4%"}
{"compound": "O=c1[nH][nH]c2c(N=Cc3ccccc3O)ccc(F)c12", "Potency": "active: 28.2 µM"}
{"compound": "CCOc1ccc(N2C(=O)CC(N(Cc3ccco3)C(=O)CCC(=O)O)C2=O)cc1", "note": "(configuration not stated)", "activity change, negative = inhibition": "inactive: -9.05%"}
{"compound": "N#C/C(=C\\c1ccc(-c2ccc(C(=O)O)cc2)o1)C(=O)Nc1ccc(F)cc1", "activity change, negative = inhibition": "inactive: -15.1%"}
{"compound": "COc1ccc(CCN(C)Cc2ccc(OCc3ccccc3)c(OC)c2)cc1OC", "Potency": "inconclusive [inhibitor, full curve, poor fit]"}
{"compound": "CCOc1ccc(-c2ccc(/C=C3/C(=N)N4C=CSC4=NC3=O)o2)c([N+](=O)[O-])c1", "Potency": "inconclusive [inhibitor, partial curve]"}
{"compound": "N#Cc1c(N2CCCCC2)nc(N)c2c(N)nc(SCC(=O)O)cc12", "Potency": "active: 28.2 µM"}
{"compound": "CCc1ccc(NC(=O)CSc2nc(NS(=O)(=O)c3ccccc3)cc(=O)[nH]2)cc1", "Potency": "active: 15.8 µM"}
{"compound": "CC1=CC(=O)c2c(O)ccc(O)c2C1=O", "Potency": "active: 17.8 µM"}
{"compound": "O=C(Nc1ccc(NC(=S)NC(=O)c2cccs2)cc1)c1ccco1", "Potency": "inconclusive [inhibitor, single point]"}
{"compound": "Oc1ccc(N=Cc2c(O)ccc3ccccc23)cc1", "Potency": "active: 31.6 µM"}
{"compound": "O=C(Nc1ccc2c(c1)CCC2)C1COc2ccccc2O1", "note": "(configuration not stated)", "Potency": "inconclusive [inhibitor, partial curve]"}
{"compound": "Cc1ccc(S(=O)(=O)N2CC=C(c3ccc(F)cc3)CC2)cc1", "activity change, negative = inhibition": "inactive: 0.996%"}
{"compound": "N#Cc1c(-c2cccc(Br)c2)cc(-c2ccco2)[nH]c1=O", "Potency": "inconclusive [inhibitor, partial curve]"}
{"compound": "COc1cc2c(cc1OC)CN(Cc1nc3ccsc3c(=O)[nH]1)CC2", "Potency": "inconclusive [inhibitor, single point]"}
{"compound": "Cc1c(CCC(=O)NCCc2ccccc2F)c(=O)oc2cc(O)ccc12", "activity change, negative = inhibition": "inactive: 2%"}
{"compound": "CN(C)c1ccc(/C=C(\\C#N)c2nc3ccccc3c(=O)[nH]2)cc1", "Potency": "inconclusive [inhibitor, full curve, poor fit]"}
{"compound": "CCOc1ccc2nc(NC(=O)c3cc([N+](=O)[O-])ccc3N3CCOCC3)sc2c1", "Potency": "inconclusive [inhibitor, single point]"}
{"compound": "CCCNC(=O)c1nnsc1S(=O)(=O)c1ccc(Cl)cc1", "activity change, negative = inhibition": "inactive: -1.86%"}
{"compound": "Cc1c(-c2ccccc2)nc(N)c(C#N)c1-c1ccco1", "Potency": "inconclusive [inhibitor, single point]"}
{"compound": "COc1ccc([N+](=O)[O-])cc1NC(=O)Nc1ccc(OC)c(OC)c1", "Potency": "active: 31.6 µM"}
{"compound": "COc1ccccc1CNc1ncnc2ccc(-c3ccccc3C#N)cc12", "activity change, negative = inhibition": "inactive: -4.49%"}
{"compound": "CCN(CC)c1ccc2nc3c(=O)n(C)c(=O)n(C)c3nc2c1", "Potency": "inconclusive [inhibitor, single point]"}
{"compound": "COc1ccc(N2CSC3=C(C#N)C(c4cccs4)CC(=O)N3C2)cc1", "note": "(configuration not stated)", "Potency": "inconclusive [inhibitor, single point]"}
{"compound": "S=c1[nH]nc(Nc2ccccc2Cl)s1", "activity change, negative = inhibition": "inactive: -4.92%"}
{"compound": "O=C(/C=C/c1ccco1)NC(=S)Nc1cccc(-c2nc3ccccc3o2)c1", "Potency": "inconclusive [inhibitor, single point]"}
{"compound": "CN=c1scc(-c2ccccc2F)n1/N=C/c1ccc(O)c(O)c1O", "Potency": "inconclusive [inhibitor, single point]"}
{"compound": "COC(=O)c1cc(C)nc2c1C(=O)C(=O)C=C2N1CCOCC1", "Potency": "active: 8.91 µM"}
{"compound": "C=CC[C@@H]1C=C[C@H](O/N=C(\\C)CCN2CCCc3nc(C)c(C)cc32)[C@H](CO)O1", "activity change, negative = inhibition": "inactive: 0.211% [at 12.4 µM]"}
{"compound": "Cc1ccccc1NC(=O)c1c(C)oc2ccc(O)c(CN3CCCC3)c12", "activity change, negative = inhibition": "inactive: -5.91%"}
{"compound": "c1cc(CN2CCCNCCNCCCNCC2)ccc1CN1CCCNCCNCCCNCC1", "Potency": "inconclusive [inhibitor, single point]"}
{"compound": "O=C(CSc1nc2ccccc2o1)N/N=C/c1ccccc1", "activity change, negative = inhibition": "inactive: -3.28%"}
{"compound": "COc1cc(NC(=O)C2CCN(S(=O)(=O)c3ccc4c(c3)oc(=O)n4C)CC2)cc(OC)c1", "activity change, negative = inhibition": "inactive: 0.965%"}
{"compound": "O=C1NC(=O)/C(=C/c2ccc(-c3cccc([N+](=O)[O-])c3)o2)S1", "Potency": "inconclusive [inhibitor, single point]"}
{"compound": "O=c1c2cc(N3CCOCC3)ccc2[nH]c(=S)n1Cc1ccco1", "Potency": "inconclusive [inhibitor, single point]"}
{"compound": "O=C(Nc1ccccc1-c1nc2ccccc2[nH]1)c1sc2ccccc2c1Cl", "Potency": "inconclusive [inhibitor, partial curve]"}
{"compound": "S=c1[nH]nc(-c2cc(-c3ccco3)[nH]n2)n1-c1cccc2ccccc12", "Potency": "inconclusive [inhibitor, single point]"}
{"compound": "Cc1c(NC(=O)Cc2cccs2)cccc1[N+](=O)[O-]", "Potency": "inconclusive [inhibitor, single point]"}
{"compound": "CC(/C=C/c1ccc(N(C)C)cc1)=N\\N=C(/N)SC1CC(=O)N(c2ccc(C(=O)O)cc2)C1=O", "note": "(configuration not stated)", "Potency": "inconclusive [inhibitor, single point]"}
